Assay results published in patent US12116397B2, “IL-IR-I binding polypeptide” (Swedish Orphan Biovitrum AB (publ), priority 2017, dated 2024).

T1: hIL-1R-I (Homo sapiens, UniProt P14778)
T1 construct: purchased R&D Systems 269-1R/CF
T1 sequence (P14778 18-569): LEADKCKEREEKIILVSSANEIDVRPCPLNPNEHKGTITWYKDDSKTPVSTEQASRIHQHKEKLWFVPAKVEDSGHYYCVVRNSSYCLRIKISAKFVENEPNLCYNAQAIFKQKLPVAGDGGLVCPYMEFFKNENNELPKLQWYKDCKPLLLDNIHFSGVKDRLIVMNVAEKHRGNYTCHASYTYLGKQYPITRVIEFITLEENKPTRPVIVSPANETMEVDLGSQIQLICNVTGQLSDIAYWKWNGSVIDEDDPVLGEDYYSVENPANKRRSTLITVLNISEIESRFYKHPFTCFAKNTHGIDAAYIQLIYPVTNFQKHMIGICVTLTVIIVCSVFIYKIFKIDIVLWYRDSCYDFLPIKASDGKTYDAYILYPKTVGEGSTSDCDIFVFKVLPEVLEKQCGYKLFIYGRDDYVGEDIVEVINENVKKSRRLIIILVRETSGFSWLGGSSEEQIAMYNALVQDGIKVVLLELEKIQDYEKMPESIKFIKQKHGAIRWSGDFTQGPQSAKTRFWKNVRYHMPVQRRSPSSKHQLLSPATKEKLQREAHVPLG

B1: Z19159: IL-1R-I binding Z variant with valine or isoleucine in position X5 (protein)
chain: AQHDEALEVDAKYAKETEEVQMEIFALPNLTRRQYTAFIRKLLDDPSQSSELLSEAKKLNDSQAPKVDYVLAEAKVLANRELDKYGVSDYYKNLINNAKTVEGVKALIDEILAALPYVPG
B2: Z19172: IL-1R-I binding Z variant with valine or isoleucine in position X5 (protein)
chain: AQHDEALEVDAKYAKELEDVQLEIFSLPNLTRRQYTAFIRKLLDDPSQSSELLSEAKKLNDSQAPKVDYVLAEAKVLANRELDKYGVSDYYKNLINNAKTVEGVKALIDEILAALPYVPG
B3: Z19181: IL-1R-I binding Z variant with valine or isoleucine in position X5 (protein)
chain: AQHDEALEVDAKYAKEVEEVQLEIYSLPNLTRRQYTAFIRKLLDDPSQSSELLSEAKKLNDSQAPKVDYVLAEAKVLANRELDKYGVSDYYKNLINNAKTVEGVKALIDEILAALPYVPG
B4: Z18912: IL-1R-I binding Z variant with valine or isoleucine in position X5 (protein)
chain: AQHDEALEVDAKYAKETEEIQMEIFHLPNLTRKQYTAFIRKLLDDPSQSSELLSEAKKLNDSQAPKVDYVLAEAKVLANRELDKYGVSDYYKNLINNAKTVEGVKALIDEILAALPYVPG
B5: Z18968: IL-1R-I binding Z variant with valine or isoleucine in position X5 (protein)
chain: AQHDEALEVDAKYAKELEEVQLEIFRLPNLTRRQYTAFIIKLLDDPSQSSELLSEAKKLNDSQAPKVDYVLAEAKVLANRELDKYGVSDYYKNLINNAKTVEGVKALIDEILAALPYVPG
B6: Z19072: IL-1R-I binding Z variant with valine or isoleucine in position X5 (protein)
chain: AQHDEALEVDAKYAKEIEEIQLEIFSLPNLTRKQYTAFIRKLLDDPSQSSELLSEAKKLNDSQAPKVDYVLAEAKVLANRELDKYGVSDYYKNLINNAKTVEGVKALIDEILAALPYVPG
B7: Z18875 (protein)
chain: AQHDEALEVDAKYAKEIEAIQMEIFHLPNLTRRQYTAFIRKLLDDPSQSSELLSEAKKLNDSQAPKVDYVLAEAKVLANRELDKYGVSDYYKNLINNAKTVEGVKALIDEILAALPYVPG
B8: Z18882 (protein)
chain: AQHDEALEVDAKYAKEVEEVQMEIFDLPNLTRRQYTAFIRKLLDDPSQSSELLSEAKKLNDSQAPKVDYVLAEAKVLANRELDKYGVSDYYKNLINNAKTVEGVKALIDEILAALPYVPG
B9: Z18888 (protein)
chain: AQHDEALEVDAKYAKEVEAIQMEIFHLPNLTRKQYTAFIRKLLDDPSQSSELLSEAKKLNDSQAPKVDYVLAEAKVLANRELDKYGVSDYYKNLINNAKTVEGVKALIDEILAALPYVPG

Legend:
[1] = biological target: T1, hIL-1R-I; assay: Biacore affinity/kinetic analysis of His6-tagged Z variants, human IL-1R-I; type: binding; conditions: His6-Z polypeptides binding to human IL-1R-I, Biacore, Table 19; for Kd: read-out: KD
Experimental: Affinities (KD) for human and cynomolgus IL-1R-I were determined for His6-tagged Z variants using a Biacore 2000 instrument (GE Healthcare). hIL-1R-I or cIL-1R-I-His6 was immobilized on the carboxylated dextran layer in different flow cells of a CM5 chip (GE Healthcare, cat. no. BR100012). The immobilization was performed using amine coupling chemistry according to the manufacturer's protocol. Acetate pH 4.5 (GE Healthcare, cat. no. BR100350) was used for ligand dilution and HBS-EP (GE Healthcare, cat. no. BR100188) was used as running buffer. One flow cell surface on the chip was activated and deactivated for use as blank during analyte injections. In the kinetic experiment, HBS-EP was used as running buffer, the flow rate was 50 μl/min and the temperature was 25° C. The analytes, i.e. the Z variants, were each diluted in HBS-EP buffer to final concentrations of 40 nM and 10 nM, and were injected over the target chip surfaces for 2 min, followed by dissociation in running buffer for 8 min. Kinetic constants were calculated from the obtained sensorgrams using a 1:1 binding model, in the BiaEvaluation software 4.1 (GE Healthcare).
The kinetic constants (kon and koff) and affinities (KD) for human and cynomolgus IL-1R-I were determined for His6-tagged Z variants using a Biacore 2000 instrument (GE Healthcare). The experiment was run essentially as described in Example 2, using 100, 10 and 1 nM of the Z variants. The analyte injection time was 3 min followed by 15 min dissociation and 2×5 s glycine pH 3.0 (GE Healthcare, cat. no. BR100357), supplemented with 0.5 M NaCl, was used for regeneration of the surfaces between the cycles. Kinetic constants were calculated from the obtained sensorgrams of two or three concentrations of the respective Z variant, using a 1:1 binding model in the BiaEvaluation software 4.1 (GE Healthcare). His6-tagged Z12967 was included in the assay for comparison.
The kinetic constants (kon and koff) and affinities (KD) for human and cynomolgus IL-1R-I were determined for His6-tagged Z variants using a Biacore 2000 instrument (GE Healthcare). The experiment was run essentially as described in Example 5, using 48, 12, 3 and 0.75 nM of the Z variants. The analyte injection time was 3 min followed by 6 min dissociation and 2×5 s glycine pH 3.0, supplemented with 0.5 M NaCl, was used for regeneration of the surfaces between the cycles. Kinetic constants were calculated from the obtained sensorgrams of three or four concentrations of the respective Z variant, using a 1:1 binding model in the BiaEvaluation software 4.1 (GE Healthcare). His6-tagged Z12967 (SEQ ID NO:9), Z16065 (SEQ ID NO:268), Z16163 (SEQ ID NO:359) and Z18557 (SEQ ID NO:1205) were included in the assay for comparison.

[2] = tested on: TF-1 cells; assay: In vitro IL-1β neutralization assay (TF-1 cell assay); type: cell-based; conditions: His6-Z polypeptides, IL-1β inhibition in TF-1 cell assay, Table 20 (Example 9)
Experimental: The TF-1 cell line proliferates in response to many different cytokines including IL-1β. This cell line was used to assess the ability of primary IL-1R1 binders to inhibit IL-1β actions. TF-1 cells were maintained in RPM11640 with L-glutamine (Lonza) supplemented with 10% FCS (Gibco), Penicillin-Streptomycin (Lonza) and 2 ng/ml rhGM-CSF (R&D Systems). Prior to use, cells were washed twice in RPM11640 without rhGM-CSF. Cells were then counted and dispensed into 96 well flat bottomed plates at a density of 3×10^4 cells per well. In separate plates, serial dilutions of the inhibitory binders; His6-tagged IL-1R-I binding Z variants, with a concentration range of 400-0.1 nM, or the IL-1R-I binding protein Kineret (anakinra, Sobi), with a concentration range of 0.3-0.0003 nM, were incubated in the presence of 0.6 nM IL-1β (PeproTech). The pre-mixed complexes of the Z variant polypeptides and IL-13 were transferred to wells containing TF-1 cells. The cells were stimulated for 72 h at 37° C. in a humidified 5% CO2 atmosphere. During the last four hours of incubation, 19 μl of 2× diluted CCK-8 (Fluka, Sigma Aldrich), was added per well to determine the proliferative responses. The absorbance was measured at 450 nm using a microplate reader (Victor3, Perkin Elmer). The data on cell growth was assessed by non-linear regression to a four-parameter dose-response curve, and the half maximal inhibitory concentration (IC50) was determined using GraphPadPrism program.
(§1) His6-tagged IL-1R-I specific Z variants were tested for their inhibitory capacity in the TF-1 cell assay. The assay was run as described in Example 2. The data on cell growth was assessed by non-linear regression to a four-parameter dose-response curve, and IC50 values were determined using GraphPadPrism program. His6-tagged Z12967 was included for comparison.
as §1, with “Z12967, Z16065, Z16163 and Z18557 were” for “Z12967 was”

[3] = Circular dichroism (CD) spectroscopy analysis, melting temperature and refolding; type: physicochemical; conditions: for Melting temperatures (Tm): His6-tagged Z variants, CD variable temperature measurement, Table 21; for thermo-stability and α-helical content versus Z variants having alanine in position X5: His6-tagged, valine or isoleucine in position X5 of the BM (Example 9)
Experimental: Purified His6-tagged Z variants were diluted to 0.5 mg/ml in PBS. For each diluted Z variant, a CD spectrum at 250-195 nm was obtained at 20° C. In addition, a variable temperature measurement (VTM) was performed to determine the melting temperature (Tm). In the VTM, the absorbance was measured at 221 nm while the temperature was raised from 20 to 90° C., with a temperature slope of 5° C./min. A new CD spectrum was obtained at 20° C. after the heating procedure in order to study the refolding ability of the Z variants. The CD measurements were performed on a Jasco J-810 spectropolarimeter (Jasco Scandinavia AB) using a cell with an optical path length of 1 mm.
CD was analyzed for His6-tagged Z variants, as described in Example 2.

Row | Molecule | koff [1] | kon [1] | Kd [1] | IC50 [2] | Melting temperatures (Tm) [3] | thermo-stability and α-helical content versus Z variants having alanine in position X5 [3]
1 | B1 | 0.005 s⁻¹ | 2.7e+07 M⁻¹ s⁻¹ | 0.19 nM | 1.2 nM | 54 °C | not substantially different
2 | B2 | 0.023 s⁻¹ | 4.9e+07 M⁻¹ s⁻¹ | 0.46 nM | 2 nM | 59 °C | not substantially different
3 | B3 | 0.016 s⁻¹ | 2e+07 M⁻¹ s⁻¹ | 0.82 nM | 4.6 nM | 61 °C | not substantially different
4 | B4 | 0.019 s⁻¹ | 9.2e+07 M⁻¹ s⁻¹ | 0.21 nM | 1 nM | 53 °C | not substantially different
5 | B5 | 0.0084 s⁻¹ | 3e+07 M⁻¹ s⁻¹ | 0.28 nM | 1.4 nM | 62 °C | not substantially different
6 | B6 | 0.018 s⁻¹ | 4.3e+07 M⁻¹ s⁻¹ | 0.41 nM | 2.4 nM | 63 °C | not substantially different
7 | B7 | 0.0028 s⁻¹ | 2.4e+07 M⁻¹ s⁻¹ | 0.12 nM | – | 61 °C | –
8 | B8 | 0.003 s⁻¹ | 1.2e+07 M⁻¹ s⁻¹ | 0.25 nM | – | 53 °C | –
9 | B9 | 0.0029 s⁻¹ | 1.8e+07 M⁻¹ s⁻¹ | 0.16 nM | – | 61 °C | –
